# Reference: the supplement of paper PMC8728848
# The other results are listed elsewhere or left out.
# Tests used:
# Test in all cases: glycan array binding signal (z-score within array); higher = stronger binding
# Conditions in all cases: glycan notation: IUPAC condensed, linker removed
# Neu5Ac(a2-3)Gal(b1-4)Glc = molecular target: Neu5Ac(a2-3)Gal(b1-4)Glc
# Outline: (§1)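 Glycan array data came from 3228 arrays in the Consortium for Functional Glycomics database, and only arrays with an available protein sequence were kept. Glycan names were put into IUPAC-condensed notation, and columns mapping to the same glycan were averaged. The binding signal is a within-array Z-score, averaged across arrays of one protein sequence run at different concentrations or buffers and across linkers. A negative Z-score can be read as non-binding.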
# [1] = molecular target: Neu5Ac(a2-3)Gal(b1-4)GlcNAc
# Outline: as §1
# [2] = molecular target: Neu5Ac(a2-3)Gal(b1-4)GlcNAc(b1-2)Man
# Outline: as §1
# [3] = molecular target: Neu5Ac(a2-3)Gal(b1-4)GlcNAc(b1-2)Man(a1-3)[GlcNAc(b1-4)][Neu5Ac(a2-3)Gal(b1-4)GlcNAc(b1-2)Man(a1-6)]Man(b1-4)GlcNAc(b1-4)GlcNAc
# Outline: as §1
# [4] = molecular target: Neu5Ac(a2-3)Gal(b1-4)GlcNAc(b1-2)Man(a1-3)[Neu5Ac(a2-3)Gal(b1-4)GlcNAc(b1-2)Man(a1-6)]Man(b1-4)GlcNAc(b1-4)GlcNAc
# Outline: as §1
# [5] = molecular target: Neu5Ac(a2-3)Gal(b1-4)GlcNAc(b1-2)Man(a1-3)[Neu5Ac(a2-3)Gal(b1-4)GlcNAc(b1-2)Man(a1-6)]Man(b1-4)GlcNAc(b1-4)[Fuc(a1-6)]GlcNAc
# Outline: as §1
# [6] = molecular target: Neu5Ac(a2-3)Gal(b1-4)GlcNAc(b1-2)Man(a1-3)[Neu5Ac(a2-6)Gal(b1-4)GlcNAc(b1-2)Man(a1-6)]Man(b1-4)GlcNAc(b1-4)GlcNAc
# Outline: as §1
# [7] = molecular target: Neu5Ac(a2-3)Gal(b1-4)GlcNAc(b1-2)[Neu5Ac(a2-3)Gal(b1-4)GlcNAc(b1-4)]Man(a1-3)[GlcNAc(b1-4)][Neu5Ac(a2-3)Gal(b1-4)GlcNAc(b1-2)[Neu5Ac(a2-3)Gal(b1-4)GlcNAc(b1-6)]Man(a1-6)]Man(b1-4)GlcNAc(b1-4)GlcNAc
# Outline: as §1
# [8] = molecular target: Neu5Ac(a2-3)Gal(b1-4)GlcNAc(b1-2)[Neu5Ac(a2-3)Gal(b1-4)GlcNAc(b1-4)]Man(a1-3)[GlcNAc(b1-4)][Neu5Ac(a2-3)Gal(b1-4)GlcNAc(b1-4)Man(a1-6)]Man(b1-4)GlcNAc(b1-4)GlcNAc
# Outline: as §1
# [9] = molecular target: Neu5Ac(a2-3)Gal(b1-4)GlcNAc(b1-2)[Neu5Ac(a2-3)Gal(b1-4)GlcNAc(b1-6)]Man(a1-6)[Neu5Ac(a2-3)Gal(b1-4)GlcNAc(b1-2)Man(a1-3)]Man(b1-4)GlcNAc(b1-4)GlcNAc
# Outline: as §1
# [10] = molecular target: Neu5Ac(a2-3)Gal(b1-4)GlcNAc(b1-2)[Neu5Ac(a2-3)Gal(b1-4)GlcNAc(b1-6)]Man(a1-6)[Neu5Ac(a2-3)Gal(b1-4)GlcNAc(b1-2)Man(a1-3)][GlcNAc(b1-4)]Man(b1-4)GlcNAc(b1-4)GlcNAc
# Outline: as §1
# [11] = molecular target: Neu5Ac(a2-3)Gal(b1-4)GlcNAc(b1-3)Gal
# Outline: as §1
# [12] = molecular target: Neu5Ac(a2-3)Gal(b1-4)GlcNAc(b1-3)Gal(b1-3)GlcNAc
# Outline: as §1
# [13] = molecular target: Neu5Ac(a2-3)Gal(b1-4)GlcNAc(b1-3)Gal(b1-4)GlcNAc
# Outline: as §1
# [14] = molecular target: Neu5Ac(a2-3)Gal(b1-4)GlcNAc(b1-3)Gal(b1-4)GlcNAc(b1-2)Man(a1-3)[Neu5Ac(a2-3)Gal(b1-4)GlcNAc(b1-3)Gal(b1-4)GlcNAc(b1-2)Man(a1-6)]Man(b1-4)GlcNAc(b1-4)GlcNAc
# Outline: as §1
# [15] = molecular target: Neu5Ac(a2-3)Gal(b1-4)GlcNAc(b1-3)Gal(b1-4)GlcNAc(b1-3)Gal(b1-4)GlcNAc
# Outline: as §1
# [16] = molecular target: Neu5Ac(a2-3)Gal(b1-4)GlcNAc(b1-3)Gal(b1-4)GlcNAc(b1-3)Gal(b1-4)GlcNAc(b1-2)Man(a1-3)[Neu5Ac(a2-3)Gal(b1-4)GlcNAc(b1-3)Gal(b1-4)GlcNAc(b1-3)Gal(b1-4)GlcNAc(b1-2)Man(a1-6)]GalNAc
# Outline: as §1
# [17] = molecular target: Neu5Ac(a2-3)Gal(b1-4)GlcNAc(b1-3)Gal(b1-4)GlcNAc(b1-3)GalNAc
# Outline: as §1
# [18] = molecular target: Neu5Ac(a2-3)Gal(b1-4)GlcNAc(b1-3)Gal(b1-4)GlcNAc(b1-3)[Neu5Ac(a2-3)Gal(b1-4)GlcNAc(b1-3)Gal(b1-4)GlcNAc(b1-6)]GalNAc
# Outline: as §1
# [19] = molecular target: Neu5Ac(a2-3)Gal(b1-4)GlcNAc(b1-3)Gal(b1-4)GlcNAc(b1-6)[Gal(b1-3)]GalNAc
# Outline: as §1
# [20] = molecular target: Neu5Ac(a2-3)Gal(b1-4)GlcNAc(b1-3)Gal(b1-4)[Fuc(a1-3)]GlcNAc
# Outline: as §1
# [21] = molecular target: Neu5Ac(a2-3)Gal(b1-4)GlcNAc(b1-3)GalNAc
# Outline: as §1
# [22] = molecular target: Neu5Ac(a2-3)Gal(b1-4)GlcNAc(b1-3)[Neu5Ac(a2-3)Gal(b1-4)GlcNAc(b1-6)]GalNAc
# Outline: as §1
# [23] = molecular target: Neu5Ac(a2-3)Gal(b1-4)GlcNAc(b1-6)GalNAc
# Outline: as §1
# [24] = molecular target: Neu5Ac(a2-3)Gal(b1-4)GlcNAc(b1-6)[Gal(b1-3)]GalNAc
# Outline: as §1
# [25] = molecular target: Neu5Ac(a2-3)Gal(b1-4)GlcNAc(b1-6)[Neu5Ac(a2-3)Gal(b1-3)]GalNAc
# Outline: as §1
# [26] = molecular target: Neu5Ac(a2-3)Gal(b1-4)GlcNAc6S
# Outline: as §1
# [27] = molecular target: Neu5Ac(a2-3)Gal(b1-4)[Fuc(a1-3)]GlcNAc
# Outline: as §1
# [28] = molecular target: Neu5Ac(a2-3)Gal(b1-4)[Fuc(a1-3)]GlcNAc(b1-2)Man
# Outline: as §1
# [29] = molecular target: Neu5Ac(a2-3)Gal(b1-4)[Fuc(a1-3)]GlcNAc(b1-3)Gal
# Outline: as §1
# [30] = molecular target: Neu5Ac(a2-3)Gal(b1-4)[Fuc(a1-3)]GlcNAc(b1-3)Gal(b1-4)GlcNAc
# Outline: as §1
# [31] = molecular target: Neu5Ac(a2-3)Gal(b1-4)[Fuc(a1-3)]GlcNAc(b1-3)Gal(b1-4)[Fuc(a1-3)]GlcNAc(b1-3)Gal(b1-4)[Fuc(a1-3)]GlcNAc
# Outline: as §1
# [32] = molecular target: Neu5Ac(a2-3)Gal(b1-4)[Fuc(a1-3)]GlcNAc(b1-3)GalNAc
# Outline: as §1
# [33] = molecular target: Neu5Ac(a2-3)Gal(b1-4)[Fuc(a1-3)]GlcNAc(b1-6)[Gal(b1-3)]GalNAc
# Outline: as §1
# [34] = molecular target: Neu5Ac(a2-3)Gal(b1-4)[Fuc(a1-3)]GlcNAc(b1-6)[Neu5Ac(a2-3)Gal(b1-3)]GalNAc
# Outline: as §1
# [35] = molecular target: Neu5Ac(a2-3)Gal(b1-4)[Fuc(a1-3)]GlcNAc6S
# Outline: as §1
# [36] = molecular target: Neu5Ac(a2-3)Gal6S(b1-4)GlcNAc
# Outline: as §1
# [37] = molecular target: Neu5Ac(a2-3)Gal6S(b1-4)[Fuc(a1-3)]GlcNAc
# Outline: as §1
binder,measurement,setting,value
"CFEM-CGl (Candida glabrata), Q6FRS0 (protein) VLATPPACLLACVAQVSKQSSQCHTLNQVGCFCENENTAIKNCLDSICPNGNSDAAYTAFKNSCGDVGKAVASV",glycan array binding signal (z-score),Neu5Ac(a2-3)Gal(b1-4)Glc,0.018
same,glycan array binding signal (z-score),[1],-0.369
same,glycan array binding signal (z-score),[2],0.827
same,glycan array binding signal (z-score),[3],-0.143
same,glycan array binding signal (z-score),[4],-0.517
same,glycan array binding signal (z-score),[5],-0.447
same,glycan array binding signal (z-score),[6],-0.682
same,glycan array binding signal (z-score),[7],-0.43
same,glycan array binding signal (z-score),[8],-0.2
same,glycan array binding signal (z-score),[9],-0.016
same,glycan array binding signal (z-score),[10],-0.394
same,glycan array binding signal (z-score),[11],-0.438
same,glycan array binding signal (z-score),[12],-0.156
same,glycan array binding signal (z-score),[13],-0.225
same,glycan array binding signal (z-score),[14],0.024
same,glycan array binding signal (z-score),[15],-0.472
same,glycan array binding signal (z-score),[16],2.18
same,glycan array binding signal (z-score),[17],-0.518
same,glycan array binding signal (z-score),[18],0.315
same,glycan array binding signal (z-score),[19],0.005
same,glycan array binding signal (z-score),[20],-0.122
same,glycan array binding signal (z-score),[21],-0.476
same,glycan array binding signal (z-score),[22],-0.174
same,glycan array binding signal (z-score),[23],-0.246
same,glycan array binding signal (z-score),[24],0.326
same,glycan array binding signal (z-score),[25],-0.178
same,glycan array binding signal (z-score),[26],-0.111
same,glycan array binding signal (z-score),[27],-0.263
same,glycan array binding signal (z-score),[28],0.312
same,glycan array binding signal (z-score),[29],-0.311
same,glycan array binding signal (z-score),[30],0.563
same,glycan array binding signal (z-score),[31],-0.167
same,glycan array binding signal (z-score),[32],3.44
same,glycan array binding signal (z-score),[33],0.977
same,glycan array binding signal (z-score),[34],0.076
same,glycan array binding signal (z-score),[35],-0.384
same,glycan array binding signal (z-score),[36],-0.211
same,glycan array binding signal (z-score),[37],-0.41
